The other results are listed elsewhere or left out. Further columns of the screen follow, without active or inactive calls.
Assays:
Experiment in all cases: Primary Screen for Target Class Profiling of Small Molecule Inhibitors of Methyltransferases
[1] = target: Glycine N-methyltransferase (Homo sapiens) (UniProt Q14749); conditions: purified enzyme, MTase-Glo SAH luminescence; measured here: GNMT inhibition; at 40 µM; stronger effect = lower value
Method in brief: (§1)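 Each enzyme was reacted with SAM and its substrate, with compounds tested once at 40 uM; SAH formed was read by MTase-Glo luminescence.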

[2] = target: Guanidinoacetate N-methyltransferase (Homo sapiens) (UniProt Q14353); conditions: purified enzyme, MTase-Glo SAH luminescence; measured here: GAMT inhibition; at 40 µM; stronger effect = lower value
Method in brief: as §1

[3] = target: Histamine N-methyltransferase (Homo sapiens) (UniProt P50135); conditions: purified enzyme, MTase-Glo SAH luminescence; measured here: HNMT inhibition; at 40 µM; stronger effect = lower value
Method in brief: as §1

[4] = target: Nicotinamide N-methyltransferase (Homo sapiens) (UniProt P40261); conditions: purified enzyme, MTase-Glo SAH luminescence; measured here: NNMT inhibition; at 40 µM; stronger effect = lower value
Method in brief: as §1

[5] = target: Phenylethanolamine N-methyltransferase (Homo sapiens) (UniProt P11086); conditions: purified enzyme, MTase-Glo SAH luminescence; measured here: PNMT inhibition; at 40 µM; stronger effect = lower value
Method in brief: as §1
% is scaled to controls: 0 for no effect and ±100 for the full control effect.

Compound	activity change, negative = inhibition [1] [%]	activity change, negative = inhibition [2] [%]	activity change, negative = inhibition [3] [%]	activity change, negative = inhibition [4] [%]	activity change, negative = inhibition [5] [%]
COc1ccc(N2C(=O)c3cc(C(C)(C)C)nn3CC2(C)C(=O)NC2CCCCCC2)cc1 (stereo not given)	0.438	0	5.3	-3.33	-4.83
COc1ccccc1CCNC(=O)c1cc2n(n1)CC(C)(C(=O)NCc1ccc(C)cc1)N(C)C2=O (stereo not given)	1.21	1.4	-1.33	-1.23	-0.579
COc1ccc(OC2CN(CC3CC3)C2)cc1	1.24	-0.572	-0.699	-1.01	-2.85
CCOC(=O)Cc1c(-c2ccccc2)c2cc(Br)ccc2[nH]c1=O	-7.66	3.19	-2.73	-8.89	-4.11
O=c1cc(-c2ccccc2)c2ccc(OCc3ccc(F)cc3)cc2o1	-4.99	2.32	-4.32	-1.3	-8.71
CCCN1C(=O)c2nc3ccccc3n2CC1(C)C(=O)NC1CCCC1 (stereo not given)	4.11	4.75	3.42	6.36	-0.929
CCN1C(=O)c2cc(C(=O)NC3CCCCCC3)nn2CC1(C)C(=O)NC1CCCC1 (stereo not given)	-1.6	3.15	-1.32	-1.55	-4.08
CC(C)Cn1c(=O)c2ccc(Cl)cc2n2c(SCC(=O)Nc3ccc4c(c3)OCO4)nnc12	-0.878	2.39	7.93	1.73	-1.44
O=C(CCc1nnc2n(Cc3ccccc3Cl)c(=O)c3ccccc3n12)NCCCN1CCCC1=O	-0.415	0	8.56	4.78	0.334
CC1CCCN(S(=O)(=O)c2ccc3[nH]c4c(c3c2)CCCC4)C1 (stereo not given)	-1.42	0.997	3.31	-5.09	-0.113
COc1ccc(CCN2C(=O)c3ccc(-c4ccco4)n3CC2(C)C(=O)NCCC(C)C)cc1OC (stereo not given)	2.56	0.413	12.9	-15.4	3.9
CC1CCCCC1NC(=O)C1(C)Cn2c(nc3ccccc32)C(=O)N1Cc1cccnc1 (stereo not given)	4.76	1.35	9.17	10.4	3.5
O=C(O)CO[C@@H]1COCC[C@H]1NC(=O)c1ccccc1-c1ncn[nH]1	-5.52	-9.19	-2.71	-12.5	-11.2
Nc1nc(CCCNC(=O)C2CC(=O)N(Cc3ccccn3)C2)cs1 (stereo not given)	-7.04	-8.49	-3.34	-14.1	-18.9
CC(C)OCCCNC(=O)c1cc(C2CC2)nc2onc(C3CCNC3)c12 (stereo not given)	-5.7	-8.87	-5.75	-15.1	-12
Cc1cc(NC(=O)N2CCn3cccc3C2C(C)C)ccc1Br (stereo not given)	12	2.7	3.83	-1.62	7.32
O=C(Cn1c(=O)oc2cc(S(=O)(=O)NCc3ccccc3)ccc21)Nc1ccc(F)cc1	-5.11	0	3.79	-6.78	-3.67
C/C(=C\C(=O)OCCCCCCCCC(=O)O)C[C@@H]1OC[C@H](C[C@@H]2O[C@H]2[C@@H](C)[C@H](C)O)[C@@H](O)[C@H]1O	-0.094	-10.2	-2.82	-18.5	-11.1
CCCn1c(=O)c2ccc(Cl)cc2n2c(=O)n(Cc3ccccc3F)nc12	-1.52	0.847	4.79	-2.16	-3.14

Compound	activity change, negative = inhibition [1] [%]	activity change, negative = inhibition [2] [%]	activity change, negative = inhibition [3] [%]	activity change, negative = inhibition [4] [%]	activity change, negative = inhibition [5] [%]
CCC(CC)CN1CC2(CCN(C(=O)CCc3nncn3C)CC2)OC1=O	-5.25	-0.926	1.07	0.387	1.6
CCCN1C(=O)c2c(-n3cccc3)c3cc(C)ccc3n2CC1(C)C(=O)NC1CCCCC1 (stereo not given)	-6.78	-2.61	-6.49	-21.3	-5.66
CCOc1ccccc1CN1C(=O)c2cc(C(C)(C)C)nn2CC1(C)C(=O)NC1CCCCCC1 (stereo not given)	2.63	3.75	2.68	4.95	-1.68
COC(=O)c1ncn2c1C(=O)N(Cc1ccc(C)o1)C(C)(C(=O)NC1CCCCC1)C2 (stereo not given)	0.26	2.15	-3.27	9.13	0.671
CC(C)CCNC(=O)C1(C)Cn2c(ccc2-c2ccco2)C(=O)N1Cc1ccccc1F (stereo not given)	2.21	0.6	8.1	4.3	-1.29
Cc1ccc(-c2noc([C@@H]3CCCN3C(=O)CCCc3ccccc3)n2)cc1	-6.92	-1.01	0.353	-10.8	-4.74
COc1cccc(NC(=O)Cn2c(=O)oc3cc(S(=O)(=O)N4CCCC4)ccc32)c1	-6.74	1.75	-4.3	2.87	-42
CC(C)CCn1c(=O)c2ccc(C(=O)NC3CCCC3)cc2n2c(=O)n(Cc3cccc(Cl)c3)nc12	7.9	0.75	13	10.2	11.3
C[C@H](C(=O)N1Cc2ccccc2CC2(CCN(Cc3ccncc3)C2)C1)c1ccccc1 (stereo not given in full)	-8.03	-8.76	-12	-22.4	9.59
CN(Cc1ccc(-c2ccccc2)cc1)C(=O)C1CC1	-14.7	-12.9	-12.8	-21.3	-13.6
CC[C@H](NC(=O)[C@H](CS(=O)(=O)CC1CC1)N[C@@H](c1ccc(F)cc1)C(F)(F)F)C(=O)C(=O)NC1CC1	2.36	9.36	3.28	-13.7	-6.75
C[C@@H]1C[C@@H](O)[C@@]23CO[C@]2(CO)C[C@@H](O)CC3[C@@]12CC(c1ccoc1)OC2=O (stereo not given in full)	1.97	-0.136	8.63	-8.77	5.91
CN1C(=O)N(C)C2(CCN(CCc3ccccc3)C2)C1=O (stereo not given)	3.59	0.394	0.944	0.671	-2.52
O=c1n(CC2CC2)nc2n1CCN(C1CCCC1)CC2	-3.24	-4.33	-0.604	-4.59	-18.8
CC(CN1C(=O)c2cc3sccc3n2CC1(C)C(=O)NC1CCCCCCC1)c1ccccc1 (stereo not given)	1.97	0.538	5.86	0.763	2.39
CC1(C(=O)N2CCC(C3CCN(S(C)(=O)=O)CC3)C2)CCOCC1 (stereo not given)	-0.31	0.077	2.79	-6.86	-3.23
COc1ccc(CN2C(=O)c3ccc(-c4ccco4)n3CC2(C)C(=O)NCc2ccc(Cl)cc2)c(OC)c1 (stereo not given)	-9.38	-5.43	3.07	-7.99	-6.37
C[C@@H]1[C@H]2[C@H](O[C@@H]3O[C@H](CO)[C@@H](O)[C@H](O)[C@H]3O)OC=C(C(=O)O)[C@H]2C[C@@H]1O	42.1	38.4	13.9	26.5	16.1
Cc1ccc(CNC(=O)C2(C)Cn3nc(C(=O)NCCN4CCOCC4)cc3C(=O)N2C)cc1 (stereo not given)	5.6	0	7.29	2.4	4.65

From PubChem BioAssay AID1745853 (National Center for Advancing Translational Sciences (NCATS), 2022)
